This passage reports binding results from publication PMC7143554.

The chains behind the UniProt entries cited, without tags or fusion partners.
UniProt D6YSK5: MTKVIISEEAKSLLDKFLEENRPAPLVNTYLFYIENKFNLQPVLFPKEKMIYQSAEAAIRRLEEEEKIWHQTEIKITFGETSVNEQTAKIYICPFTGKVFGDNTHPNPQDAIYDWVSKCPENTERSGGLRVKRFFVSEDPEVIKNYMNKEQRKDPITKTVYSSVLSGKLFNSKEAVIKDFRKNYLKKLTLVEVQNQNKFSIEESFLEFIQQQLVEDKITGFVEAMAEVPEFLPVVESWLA
UniProt D6YUB1: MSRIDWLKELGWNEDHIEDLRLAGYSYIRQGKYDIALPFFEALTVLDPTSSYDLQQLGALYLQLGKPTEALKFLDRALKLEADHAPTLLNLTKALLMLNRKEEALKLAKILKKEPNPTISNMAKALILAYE

These are yes or no findings as the source states them, for the method shown. For part of these data: Binding seen in cells or lysates may run through a third protein. Some binding calls cover weakened binding; strength is not graded here.

The target of assay [1] is GST-tagged Wcw_1706 (Waddlia chondrophila) (UniProt D6YSK5). The experiment in a line: pull-down; Pierce GST Protein Interaction Pull-Down Kit; GST-tagged Wcw_1706 with His-tagged chaperones; immunoblot (anti-GST, anti-His). For orientation: In western blotting, separated proteins are transferred to a membrane and probed.
Assay [2] has as its target His-tagged Wcw_0348 (T3SS class II chaperone, tetratricopeptide repeat-containing protein) (Waddlia chondrophila) (UniProt D6YUB1). In words: pull-down; Pierce Pull down PolyHis kit; His-tagged chaperones from E. coli cultures fixed on HisPur Cobalt resin (1.5 h, 4 °C, Tris buffer, 10 mM imidazole), 5 washes with 20 mM imidazole; purified non-tagged Wcw_1706 added 2 h at 4 °C in phosphate buffer, 40 mM imidazole, 500 mM NaCl; eluted with 290 mM imidazole; immunoblot with anti-Wcw_1706; both purified.

Assay [3] has as its target His-tagged Wcw_0616 (T3SS chaperone, counterpart of Multiple Cargo Secretion Chaperone Mcsc) (Waddlia chondrophila) (UniProt D6YV23). The assay is described as above.
Assay [4] deals with His-tagged Wcw_0969 (T3SS chaperone, homolog of SlcI) (Waddlia chondrophila) (UniProt D6YW18). The description is as above.

Turning to “His-tagged Wcw_0348 (T3SS class II chaperone, tetratricopeptide repeat-containing protein) (from UniProt D6YUB1 1-131)”, the binding result in assay [1] was “binds”. Take “His-tagged Wcw_0616 (T3SS chaperone, counterpart of Multiple Cargo Secretion Chaperone Mcsc) (from UniProt D6YV23 1-153)”: the binding result in assay [1] was “no binding”. For the substance “Wcw_1706 (non-tagged, purified) (from UniProt D6YSK5 1-240)”, the figures for the binding result in assay [2], in assay [3] and in assay [4] were “binds”, “no binding” and “no binding”, respectively. Consider “His-tagged Wcw_0969 (T3SS chaperone, homolog of SlcI) (from UniProt D6YW18 1-168)”, for which the binding entry in assay [1] is “no binding”.
